Values after ≈ are worked out from the molar mass of the structure shown.

In this assay the test system is Caenorhabditis elegans. Kind of assay: whole plant or invertebrate. Particulars: 24 h, read-out: IC50, Antinematodal activity on C. elegans. On the procedure:
The nematode Caenorhabditis elegans, which was kindly supplied by Dr. Yuanmei Zuo at the College of Resources and Environmental Sciences, China Agricultural University, was inoculated on the nematode growth medium (NGM) that was cultured previously with Escherichia coli OP50according to methods of Steiemagle. The NGM plate was full of the worms after 4 to 5 days at 16 °C in darkness. In order to determine the IC50 values of the compounds, 5% acetone-water solutions of each sample at 1, 5, 10, 25, 50, 100, and 200 μg/mL were assayed for antinematodal activity. The test nematode dilution (90 μL containing 40–50 nematodes) was added into each well of the sterile 96-well microplate and then, 10 μL of sample stock solution was added into each well and mixed thoroughly. 5% acetone-water solution was used as the negative control. Avemectin B1, which was kindly provided by Dr. Shankui Yuan at the Institute for the Control of Agrochemicals, Chinese Ministry of Agriculture, was used as the positive control with the purity of 97.2%. It was a mixture of avermectin B1a and avermectin B1b in the ratio of 9.5 to 0.5 (w/w). Five replicates were carried out for each treatment, and the experiments were repeated twice. Dead and active nematodes were counted after 24 h. […] The mean percentage of mortality was then calculated. The net percentage of mortality was about 3% by using 5% acetone-water solution as the negative control after 24 h. Nematode recovery was not observed to the dead nematodes. The IC50 value calculation for the antinematodal activity was the same as that for antibacterial activity assay.
Turning to `CC1OC(=O)c2c(O)cccc2C1O` (centres unmarked) [4,8-dihydroxy-3-methylbenzopyran-1-one], the IC50 turned out to be 86.9 µg/mL (≈ 447 µM).
For `COc1cc(O)c2c(=O)oc3cc(O)cc(C)c3c2c1` [Alternariol 9-methyl ether (3), 3,7-dihydroxy-9-methoxy-1-methyl-6H-dibenzo[b,d]pyran-6-one], the IC50 is 94 µg/mL (≈ 345 µM).
Then `COC1=CC2(C)OC(=O)c3c(O)cc(OC)cc3C2=C(O)C1=O` (centres unmarked) [Botrallin (4), 1,7-dihydroxy-3,9-dimethoxy-4a-methyl-6H-dibenzo[b,d]pyran-2,6 (4aH)-dione], with 84.5 µg/mL (≈ 266 µM); and `COc1cc(O)c2c(=O)oc3cc(O)c(Cl)c(C)c3c2c1` [Palmariol B (1), 2-chloro-3,7-dihydroxy-9-methoxy-1-methyl-6H-dibenzo[b,d]pyran-6-one], with 56.2 µg/mL (≈ 183 µM); and `CC[C@H](C)[C@H]1O[C@]2(C=C[C@@H]1C)C[C@@H]1C[C@@H](C/C=C(\C)[C@@H](O[C@H]3C[C@H](OC)[C@@H](O[C@H]4C[C@H](OC)[C@@H](O)[C@H](C)O4)[C@H](C)O3)[C@@H](C)/C=C/C=C3\CO[C@@H]4[C@H](O)C(C)=C[C@@H](C(=O)O1)[C@]34O)O2` [avermectin, reference compound], with 3.7 µg/mL (≈ 4.24 µM).

(Values after paper PMC6268909 (Molecules, 2012).)
